Data as given in US10363282B2, “Analogs of C5a and methods of using same” (priority 2010, dated 2019).

How the values were obtained:
[1] = tested on: CA-MRSA strain USA300; details: for lesion size, neutropenic mice vs respective IgG-treated paired control animals: RB6-8C5 Mab, P<0.001
Experimental: Bacterial strains and culture conditions. Methicillin-sensitive Staphylococcus aureus (MSSA) laboratory strain ISP479C (Pattee P A., et al., J Bacteriol 1981;145:479-488) and CA-MRSA USA300 isolate (TCH1516-HOU-MR, ATCC accession number BAA-1717) (Highlander S K, et al., BMC Microbiol 2007;7:99) were used in this study. Strains were grown aerobically in tryptone soy (TS) broth (Oxoid) at 37° C.
Mouse model of MRSA demonecrotic infection. All animal work was carried out under the approval of the Office of Laboratory Animal Care (OLAC) at San Diego State University and adhered to accepted veterinary standards. Outbred female CD1 mice 8-12 weeks of age were obtained from Charles River Laboratories. CD88−/− mice were purchased from Jackson Labs. Originally on a heterozygous background, these animals were back-crossed at least 5 times onto the C57B^1/6 background. Prior to infection, hair was removed from the lower backs of mice (n=6-10) using a razor and depilatory cream. Sub-cutaneous S. aureus infection was carried out as described previously (Bunce C, et al., Infect Immun 1992;60:2636-2640). Briefly, 0.1 mL volumes of mid-logarithmic phase MRSA ˜4×10^7 CFU diluted in cytodex bead-DPBS solution were injected sub-cutaneously into the right flank of prepared animals. Where indicated, 250 μg EP67, sEP67 or an equivalent volume of DPBS (50 μL) were injected sub-cutaneously into the right flank 24 h and 4 h prior to and 24 h following bacterial infection. Lesion size was measured on subsequent days using digital calipers. Ulcerative lesions were measured over time, harvested and homogenized using sterile 1 mm ceramic beads. Dilutions of the homogenate were placed on TS agar to enumerate bacterial colony forming units (cfu) per g tissue. Mice (CD1) were rendered neutropenic as described previously (Hoesel L M, et al., Shock 2005; 24:40-47). Briefly, mice were injected intra-peritoneally with rat monoclonal anti-mouse Ly-6G antibody (RB6-8C5, eBioscience) or control rat immunoglobulin (IgG, eBioscience) 24 h prior to EP67 injection and subsequent bacterial infection as described above.
EP67 treatment reduces S. aureus cutaneous lesion formation in mice. In order to examine the effects of immunomodulatory peptide EP67 on CA-MRSA disease progression, a mouse model of ulcerative dermal infection was used (Bunce C, Infect Immun 1992; 60:2636-2640). […] Prior to and post-MRSA infection, mice were injected with 250 μg EP67 or the scrambled peptide control, sEP67, as described in above. Disease progression was assessed via measurement of cutaneous lesion development.

[2] = tested on: CA-MRSA strain USA300; test: Proinflammatory cytokines in skin lesion homogenates (ELISA); assay type: in vivo, mice
Experimental: Measurement of cytokines. IL-6, TNF-α, INF-γ and KC inflammatory cytokines were measured in tissue homogenates as previously described using ELISA for IL-6, TNF-α, INF-γ (Morgan E L, et al., Vaccine;28:8275-8279), or according to manufacturer's protocols (BD and R&D Systems) for KC. Samples were run in triplicate.
Proinflammatory cytokines are enhanced by EP67 treatment. The decrease in lesion size observed in EP67-treated animals indicated an enhanced immune activation in these animals. In order to determine the nature of the immune response activated by EP67 treatment, skin lesions were harvested 48 h post-infection and EP67 or sEP67 treatment, and subjected to ELISA to measure proinflammatory cytokines in tissue homogenates.

[3] = 48 h post-infection, compared to sEP67

## (MeL)RMYKPaFDS ([NMeL]RMYKP[dA]FDS) [sEP67, reference compound]
[1]
  lesion size, neutropenic mice vs respective IgG-treated paired control animals: significantly larger lesions

## YSFKDMP(MeL)aR (YSFKDMP[NMeL][dA]R; listed as Homo sapiens) [EP67, C-terminal analog of human C5a]
[2]; [3]
  IL-6 in skin lesion homogenates: Significantly higher levels
  murine KC in skin lesion homogenates: Significantly higher levels
[2]; during MRSA infection
  INF-γ production: increase
  TNF-α production: increase
[1]; 250 μg s.c., 48 h post-bacterial inoculation, compared to sEP67
  lesion size: significantly reduced
[1]; 5 days post-inoculation, compared to sEP67 or PBS
  bacterial load (CFU) in lesions: significant reduction in bacterial load
[1]
  lesion size, neutropenic mice vs respective IgG-treated paired control animals: significantly larger lesions
[1]; isotype IgG control antibody groups, EP67 compared to sEP67
  lesion size: significant reduction in lesion size
[1]; neutropenic mice (RB6-8C5 Mab), EP67 vs sEP67
  lesion size: no quantifiable difference in lesion size

Like-named read-outs stand apart in the source and are kept apart here. Where no end group is shown, it is not given here. [ ]: non-standard residue; d: D form. NMeL = CN[C@@H](CC(C)C)C(=O)O
